{
  "source": "PubChem BioAssay (NCATS)",
  "note": "This list was built around the results that the source calls inconclusive (neither active nor inactive); the mix of calls is not that of the screen. Potencies beside an inconclusive call are fits to weak or partial responses and may not hold up. The source made the active and inactive calls. The call rests on the fitted dose curve; in most records, active means well fitted cell-killing curve with a large enough effect; inconclusive means small, poorly fitted or top-dose-only effect, or effect the other way; inactive means flat fitted curve, though single readings scatter. Potency means the concentration at half of the fitted maximal effect; tags describe the fitted curve by direction and shape.",
  "data": [
    {"tested_on": "SKOV3", "test": "Primary qHTS to identify gynecologic anti-cancer compounds using libraries of approved drugs and bioactive compounds (AID 1345084); further: nearly all actives have a fitted effect of over 55% in size", "conditions": "Gynecologic cancer cell panel viability, ATPlite luminescence, 48 h; series mostly up to 57.5 µM", "method_in_brief": "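In this quantitative HTS, cell killing is estimated from loss of ATP-dependent luciferase light. Cells see five compound concentrations over a 48 h exposure.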", "values": [
      {"smiles": "CC(=O)NC1=NN(C(C)=O)C(C)(c2ccccc2)S1", "note": "(stereo unspecified)", "Potency": "inconclusive: 3.98 µM [cytotoxic, single point]"},
      {"smiles": "CNC(=O)c1cccc(-c2ccc3c(N4CCOC[C@@H]4C)nc(N4CCOC[C@@H]4C)nc3n2)c1", "Potency": "active: 1.58 µM"},
      {"smiles": "Nc1ncnc2c1nc(N)n2[C@@H]1O[C@H](CO)[C@@H](O)[C@H]1O", "Potency": "active: 3.16 µM"},
      {"smiles": "COc1ccc(F)cc1-c1cc(NC(=O)[C@@H]2CCCNC2)ncc1Cl", "Potency": "inconclusive: 1.12 µM [cytotoxic, full curve, poor fit]"},
      {"smiles": "CC(CCC1(O)OC2CC3C4CC=C5CC(O[C@@H]6O[C@H](CO)[C@@H](O[C@@H]7O[C@@H](C)[C@H](O)[C@@H](O)[C@H]7O)[C@H](O)[C@H]6O[C@@H]6O[C@@H](C)[C@H](O)[C@@H](O)[C@H]6O)CCC5(C)C4CCC3(C)C2C1C)CO[C@@H]1O[C@H](CO)[C@@H](O)[C@H](O)[C@H]1O", "note": "(stereo partly specified)", "Potency": "inconclusive: 11.2 µM [cytotoxic, single point]"},
      {"smiles": "Nc1cccc(CNC(=O)c2ccc(Oc3ccc(OCc4cccc(F)c4)cc3)nc2)c1", "Potency": "inconclusive: 2.82 µM [rising, partial curve, poor fit]"},
      {"smiles": "C=C(CCC1=C(C)[C@H]2[C@H](CC3[C@@H]4CC=C5C[C@@H](O)C[C@@H](O)[C@]5(C)C4[C@H](O)C[C@@]32C)O1)CO[C@@H]1O[C@H](CO)[C@@H](O)[C@H](O)[C@H]1O", "note": "(stereo partly specified)", "Potency": "active: 2.82 µM"},
      {"smiles": "C[C@@H](O[C@H]1OCCN(Cc2n[nH]c(=O)[nH]2)[C@H]1c1ccc(F)cc1)c1cc(C(F)(F)F)cc(C(F)(F)F)c1", "Potency": "inconclusive: 39.8 µM [cytotoxic, single point]"},
      {"smiles": "C(=C\\c1ccccc1)/CN1CCN(C(c2ccccc2)c2ccccc2)CC1", "Potency": "inconclusive: 3.16 µM [rising, partial curve, poor fit]"},
      {"smiles": "C=C1C(=O)O[C@H]2/C=C(/C)[C@@H](OC(C)=O)C/C=C(\\C)C[C@@H](OC(=O)/C(=C/C)COC(=O)/C(=C/C)CO)[C@@H]12", "Potency": "inconclusive: 8.91 µM [cytotoxic, single point]"},
      {"smiles": "O=C(/C=C/c1ccc(O)c(O)c1)O[C@H]1[C@H](OC2CCCCC2O)O[C@H](CO)[C@@H](O)[C@@H]1O", "note": "(stereo partly specified)", "Potency": "inconclusive: 15.8 µM [cytotoxic, partial curve, poor fit]"},
      {"smiles": "CNc1cccc(CCOc2ccc3c(c2)CN(CC(F)(F)F)C(=O)[C@H](CC(=O)O)C3)n1", "Potency": "active: 1.78 µM"},
      {"smiles": "CC(Nc1ncnc2nc[nH]c12)c1cc2cccc(Cl)c2c(=O)n1-c1ccccc1", "note": "(stereo unspecified)", "Potency": "inconclusive: 15.8 µM [cytotoxic, partial curve, poor fit]"},
      {"smiles": "CC1CCN(C(=O)CC#N)CC1N(C)c1ncnc2[nH]ccc12", "note": "(stereo unspecified)", "Potency": "inactive"},
      {"smiles": "COc1ccc(Cc2cnc(N)nc2N)cc1OC", "Potency": "inconclusive: 1.58 µM [rising, full curve, poor fit]"},
      {"smiles": "C/C1=C\\CCC2=CC(OC2=O)C(C)(C)/C=C/C1=O", "note": "(stereo unspecified)", "Potency": "inconclusive: 25.1 µM [cytotoxic, single point]"},
      {"smiles": "COc1cc2nc(N3CCN(C)CC3)nc(NC3CCN(Cc4ccccc4)CC3)c2cc1OC", "Potency": "inconclusive: 31.6 µM [cytotoxic, partial curve, poor fit]"},
      {"smiles": "CC(=O)O[C@H]1CC(C)(C)CC2[C@]13CO[C@@]21CCC2[C@@]4(C)CC[C@H](O[C@@H]5OC[C@H](O[C@@H]6O[C@H](CO)[C@@H](O)[C@H](O)[C@H]6O[C@@H]6OC[C@@H](O[C@@H]7O[C@H](CO)[C@@H](O)[C@H](O)[C@H]7O)[C@H](O)[C@H]6O)[C@H](O)[C@H]5O[C@@H]5O[C@H](CO)[C@@H](O)[C@H](O)[C@H]5O)[C@@](C)(CO)C4CC[C@@]2(C)[C@]1(C)C[C@H]3O", "note": "(stereo partly specified)", "Potency": "inconclusive: 6.31 µM [cytotoxic, single point]"},
      {"smiles": "CCOC(=O)c1cnn(-c2ccccc2)c1NC(=O)c1cc2nc(-c3ccco3)cc(C(F)(F)Cl)n2n1", "Potency": "inactive"},
      {"smiles": "COc1ccc2nccc(C(=O)CC[C@@H]3CCN(CC#Cc4cc(F)cc(F)c4F)C[C@@H]3C(=O)O)c2c1", "Potency": "inconclusive: 39.8 µM [rising, single point]"},
      {"smiles": "CCN(CC)CCOc1ccc2c(c1)C(=O)c1cc(OCCN(CC)CC)ccc1-2", "Potency": "inconclusive: 17.8 µM [cytotoxic, partial curve, poor fit]"}
    ]}
  ]
}
